Experimental data published in the supplement of paper PMC11348887.
Structures can show the parent of a compound that is named as a salt. The list shows a part of the results. No stated cut-off is given here; in the data, active = -2 or less and inactive = the rest. Single values are uncertain, as repeats are few or missing.

tested on: hPSC-derived cortical neurons (WA09); assay: nuclei number (viability) z-score; higher = more surviving cells; details: 5 µM; treatment: days 7-14 after plating, readout day 21
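Further: nuclei counted from DAPI counterstain by automated high-content image analysis, four fields per well at ×20 in 384-well plates, with sequential b-score then z-score normalization.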

Structure (SMILES) | nuclei number (z-score)
Cc1cc(-n2c(=O)[nH]c(=O)n(C)c2=O)ccc1Oc1ccc(SC(F)(F)F)cc1 [Toltrazuril] | inactive: 0.671
CN(CCOc1ccc(CC2SC(=O)NC2=O)cc1)c1ccccn1 (stereo not given) [Rosiglitazone maleate] | inactive: -0.479
CN(CCOc1ccc(CC2SC(=O)NC2=O)cc1)c1ccccn1 (stereo not given) [Rosiglitazone] | inactive: -0.371
CN(CCOc1ccc(CC2SC(=O)NC2=O)cc1)c1ccccn1 (stereo not given) [Rosiglitazone HCl] | inactive: 7.15
O=C(NCC(=O)N1CCCC1)Nc1ccc2cnccc2c1 | inactive: -0.106
CC(N)C12CC3CC(CC(C3)C1)C2 (stereo not given) [Rimantadine] | inactive: -0.0964
COc1ccc(C[C@@H]2c3cc(OC)c(OC)cc3CC[N@+]2(C)CCC(=O)OCCCCCOC(=O)CC[N@@+]2(C)CCc3cc(OC)c(OC)cc3[C@H]2Cc2ccc(OC)c(OC)c2)cc1OC [Cisatracurium Besylate] | inactive: 0.843
CCOC(=O)c1c(C)n(C)c2ccc(O)cc12 [Mecarbinate] | inactive: 0.143
Fc1cc(-c2cccc3ncc(-c4cnn(C5CCNCC5)c4)nc23)cc(F)c1CN1CCOCC1 | active: -7.38
O=C(O)CC[C@@H](O)C(=O)O [Disodium (R)-2-Hydroxyglutarate] | inactive: 0.555
Brc1c(NC2=NCCN2)ccc2nccnc12 [Brimonidine Tartrate] | inactive: 0.0554
CN(C)CCOC(=O)COc1ccc(Cl)cc1 [Meclofenoxate (Centrophenoxine) HCl] | inactive: 0.172
C[C@H](Oc1cc(-c2cnn(C3CCNCC3)c2)cnc1N)c1c(Cl)ccc(F)c1Cl [(S)-crizotinib] | inactive: -1.21
CCCCCCCCCC(=O)N[C@H]1[C@H](Oc2c3cc4cc2Oc2ccc(cc2Cl)[C@@H](O[C@@H]2O[C@H](CO)[C@@H](O)[C@H](O)[C@H]2NC(C)=O)[C@@H]2NC(=O)[C@H](NC(=O)[C@@H]4NC(=O)[C@H]4NC(=O)[C@@H](Cc5ccc(c(Cl)c5)O3)NC(=O)[C@H](N)c3ccc(O)c(c3)Oc3cc(O)cc4c3)c3ccc(O)c(c3)-c3c(OC4O[C@H](CO)[C@@H](O)[C@H](O)[C@@H]4O)cc(O)cc3[C@@H](C(=O)O)NC2=O)O[C@H](CO)[C@@H](O)[C@@H]1O (stereo not given in full) [Teicoplanin] | inactive: 11.2
NCc1c[nH]c(=S)n1[C@@H]1CCc2c(F)cc(F)cc2C1 [(R)-Nepicastat HCl] | inactive: -0.14
OC(CCN1CCCCC1)(c1ccccc1)C1CCCCC1 (stereo not given) [Trihexyphenidyl hydrochloride] | inactive: 0.68
Cc1ccc2c(Cl)cc(Cl)c(O)c2n1 [Chlorquinaldol] | inactive: 1.03
N=C(N)N/N=C/c1c(Cl)cccc1Cl [Guanabenz Acetate] | inactive: -0.528
CN(C)c1ccc2c(c1)Sc1cc(N(C)C)ccc1N2 [TRx0237 (LMTX) mesylate] | active: -6.09
O=C(OCc1ccccc1)c1ccccc1 [Benzyl benzoate] | inactive: 0.894

Structure (SMILES) | nuclei number (z-score)
COc1ccc(C(=O)NCc2ccc(OCCN(C)C)cc2)cc1OC [Itopride hydrochloride] | inactive: -0.676
Cc1cc(Nc2nc(N[C@@H](C)c3ncc(F)cn3)ncc2Cl)[nH]n1 | inactive: 0.635
COC[C@H](NC(=O)c1cnc(C)s1)C(=O)N[C@@H](COC)C(=O)N[C@@H](Cc1ccccc1)C(=O)[C@@]1(C)CO1 [Oprozomib (ONX 0912)] | active: -4.77
CCCCC(=O)N(Cc1ccc(-c2ccccc2-c2nnn[nH]2)cc1)[C@H](C(=O)O)C(C)C.CCOC(=O)[C@H](C)C[C@@H](Cc1ccc(-c2ccccc2)cc1)NC(=O)CCC(=O)O | inactive: 0.478
OC[C@H]1O[C@@H](O[C@@H]2[C@@H](CO)OC(O)(CO)[C@H]2O)[C@H](O)[C@@H](O)[C@H]1O (mixture of isomers) [Lactulose] | inactive: 0.44
CC[C@@H]1/C=C(\C)C[C@H](C)C[C@H](OC)[C@H]2O[C@@](O)(C(=O)C(=O)N3CCCC[C@H]3C(=O)O[C@H](/C(C)=C/[C@@H]3CC[C@H](Cl)[C@H](OC)C3)[C@H](C)[C@@H](O)CC1=O)[C@H](C)C[C@@H]2OC [Pimecrolimus] | inactive: -0.685
CCC1(c2c[nH]cn2)Cc2ccccc2C1 [Atipamezole] | inactive: 0.651
CCC1(c2c[nH]cn2)Cc2ccccc2C1 [Atipamezole hydrochloride] | inactive: -0.442
CN(C)[C@@H]1C(O)=C(C(N)=O)C(=O)[C@@]2(O)C(O)=C3C(=O)c4c(O)ccc(Cl)c4[C@@H](O)[C@H]3C[C@@H]12 [Demeclocycline HCl] | inactive: 0.712
O=C(O)CC1CC(c2ccccc2)=NO1 (stereo not given) | inactive: -0.0578
CCN(c1cc(-c2ccc(CN3CCOCC3)cc2)cc(C(=O)NCc2c(C)cc(C)[nH]c2=O)c1C)C1CCOCC1 | inactive: 0.819
Cn1c([N+](=O)[O-])cnc1COC(N)=O [Ronidazole] | inactive: -1.01
CC1CCc2c(N3CCC(O)CC3)c(F)cc3c(=O)c(C(=O)O)cn1c23 (stereo not given) [Nadifloxacin] | inactive: 2.93
Cc1ccc(-c2ncc(Cl)cc2-c2ccc(S(C)(=O)=O)cc2)cn1 [Etoricoxib] | inactive: -0.535
CC(C)(C)C[C@@H]1N[C@@H](C(=O)N[C@H]2CC[C@H](O)CC2)[C@H](c2cccc(Cl)c2F)[C@]12C(=O)Nc1cc(Cl)ccc12 | active: -4.45
O=c1c2ccccc2oc2ccccc12 [Xanthone] | inactive: 1.21
CO[C@H]1O[C@@H]2O[C@@]3(C)CC[C@H]4[C@H](C)CC[C@@H]([C@H]1C)[C@@]24OO3 [Artemether] | inactive: 0.221
Cn1ncc(Cl)c1-c1cc(C(=O)N[C@H](CN)Cc2cccc(F)c2)sc1Cl | active: -2.35
NC12CC3CC(CC(C3)C1)C2 [Amantadine HCl] | inactive: -0.38
CCCN(CCc1cccs1)[C@H]1CCc2c(O)cccc2C1 [Rotigotine] | inactive: -0.123
